Data reported in ChEMBL document CHEMBL1201862, “PubChem BioAssay data set” (2004).
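Compound exposure: 48 hours, 5 concentrations, 96-well plates. GI50 marks 50% less growth.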 Active and inactive are the calls of the source. Cut-off read from the data, not from the text of the source: active = GI50 up to about 1.1 µM and inactive = higher.

System: NCI-H322M
Test: NCI tumour cell line growth inhibition, 48 h

SMILES | GI50
CSS(C)(=O)=O | inactive: > 100 µM
Cn1c(=O)c2nc(CCCCC(=O)O)[nH]c2n(C)c1=O | inactive: > 100 µM
CC1=CC(=O)NP(=O)(Oc2ccc(Cl)cc2)N1 (stereo unspecified) | inactive: > 100 µM
CC1=C(C)SC(=C2Sc3c(n(C)c(=O)n(C)c3=O)S2)S1 | inactive: > 100 µM
COc1ccc2nc3cc(Cl)ccc3c(NCCCN(CCCl)CCCl)c2c1 | active: 0.0568 µM
O=C(Nc1ccccc1-c1nn(CO)c(=S)n(CO)c1=O)C(F)(F)F | inactive: > 100 µM
Cc1cc(NC(=S)Nc2ccccc2)c(NC(=S)Nc2ccccc2)cc1C | inactive: 34.2 µM
O=C1CCCCCC1CC(Sc1ccccc1)Sc1ccccc1 (stereo unspecified) | inactive: > 100 µM
COc1ccc(O[C@H](CO)C[C@@H]2COC(C)(C)O2)cc1 | inactive: > 100 µM
COC(=O)C12CC(C3CC31)C1CC12 (stereo unspecified) | inactive: > 100 µM
CCn1c(-c2cc(OC)cc(OC)c2)nc2c1C(=O)c1ccccc1C2=O | inactive: > 100 µM
CCNC(=S)/N=c1\sc(NCC)nc2sc3c(c12)CCN(N1CCc2c(sc4nc(NCC)s/c(=N\C(=S)NCC)c24)C1)C3 | inactive: 33.3 µM
CCN(N=O)C1C2(CCCC2)NC(=O)C12CCCC2 (stereo unspecified) | inactive: > 100 µM
C#CCN(N=O)C(=O)NCCCC(NC(C)=O)C(=O)NCc1ccccc1 (stereo unspecified) | inactive: > 100 µM
O=C1CCCC/C(=C/c2ccccc2)N1 | inactive: > 100 µM
CCOC(=O)C(NC(=O)CC)(Nc1ccc(F)c(Cl)c1)C(F)(F)F (stereo unspecified) | inactive: > 100 µM
CSC(=N)N1N=C2c3ccccc3CC[C@@H]2[C@@H]1c1ccccc1 | inactive: 15.7 µM
O=C(O)c1c2c(cc3c1CC1(Cc4ccccc4C1=O)C3)CCC2 (stereo unspecified) | inactive: 5.78 µM
CC(C)C1OC(N)=C(C#N)C1(C#N)C#N (stereo unspecified) | inactive: > 100 µM
CC(=O)Oc1cc2c[n+](C)c3c4cc(OC(C)=O)c(OC(C)=O)cc4ccc3c2cc1OC(C)=O | inactive: 3.63 µM
O=C1O[C@H](COC(=O)c2ccccc2)[C@@H](OC(=O)c2ccccc2)C=C1OC(=O)c1ccccc1 | inactive: 33.7 µM
Nc1ncnc2c1ncn2C1OC(CSC(F)F)C(O)C1O (stereo unspecified) | inactive: > 100 µM

SMILES | GI50
O=C1/C(=C/c2ccccc2S)N=C(c2ccccc2)N1c1nc2ccc(Sc3ccccc3)cc2[nH]1 | inactive: 48.4 µM
COC(=O)c1nsc(OC)c1Cl | inactive: > 100 µM
C=CCN(c1cc(O)c2c(c(C)cn2S(=O)(=O)c2ccccc2)c1[N+](=O)[O-])S(C)(=O)=O | inactive: > 100 µM
Clc1ccc(C2SCc3nc4ccccc4n32)c(Cl)c1 (stereo unspecified) | inactive: 12.9 µM
CCOC(=O)c1nnn(CCCCO)c1C(=O)OCC | inactive: > 100 µM
O=C1c2ccccc2C(Br)(Br)c2ccccc21 | inactive: > 100 µM
Cc1cc(Cc2cc(C)c(NC(=O)C(=O)C3C(=O)NC(=S)NC3=O)c(C(C)C)c2)cc(C(C)C)c1NC(=O)C(=O)C1C(=O)NC(=S)NC1=O | inactive: > 100 µM
CC12c3c4ccc(C=O)c3Oc3ccc(C=O)c(c31)Oc1ccc(C=O)c(c12)O4 | inactive: > 25 µM
CCOC(=O)c1c(-c2ccc(OC)cc2)c(C#N)c(=S)n(C2OC(COC(C)=O)C(OC(C)=O)C(OC(C)=O)C2OC(C)=O)c1C (stereo unspecified) | inactive: > 100 µM
CCSC1=N/C(=C\c2ccco2)C(=O)N1 | inactive: > 100 µM
CN(C)c1nc2oc(-c3ccccc3)c(-c3ccccc3)c2c2nnnn12 | inactive: > 100 µM
CC/C=C\C=C/C(=O)N/C=C/CCC | inactive: > 100 µM
O=[N+]([O-])C1=Cc2c(O)ccc(O)c2C2c3ccccc3NC12 (stereo unspecified) | inactive: 15.1 µM
CN(C)c1ccc(/C=C(\NC(=O)c2ccccc2)C(=O)NC(CC(=O)O)C(=O)O)cc1 (stereo unspecified) | inactive: > 100 µM
CC(=O)Nc1c(C)cc2c(nc3n2CCC3OC(C)=O)c1[N+](=O)[O-] (stereo unspecified) | inactive: > 100 µM
O=[N+]([O-])c1ccc2c(c1)N=C1OC(c3c[nH]c4ccc(COc5ccccc5)cc34)C(O)=C1N2 (stereo unspecified) | inactive: 96.4 µM
O=C1/C(=C\c2cccc(Oc3ccccc3)c2)SC(c2ccccc2)N1c1cc(Cl)ccc1Cl (stereo unspecified) | inactive: 93.5 µM
CC(C)N1CN(C(C(=O)N[C@@H]2C(=O)N3C2SC(C)(C)C3C(=O)O)c2ccccc2)CSC1=S (stereo partly specified) | inactive: > 100 µM
CN/N=C(/C=C/c1ccccc1)C(C)C | inactive: > 100 µM
C=CCCCCNC(=O)C[C@@H]1C2=C(CC[C@H]1O[Si](C)(C)C(C)(C)C)N1C(=O)CCC/C=C\C1C2 (stereo partly specified) | inactive: 16.2 µM
O=C1CCCC2=C(N1)C(=O)C=CC2=O | inactive: > 64.1 µM
COc1cccc(-c2c(-c3ccccc3)[nH]c(C)c2C(=O)ONC(=O)c2ccccc2)c1 | inactive: 11.2 µM

SMILES | GI50
CCOC(=O)C1=C(C)N2CCOC2(C)C(C(=O)OC)C1c1cccc(Cl)c1 (stereo unspecified) | inactive: > 100 µM
COc1ccc(/C=C2/C(=O)N(/C=C3\C(=O)Oc4ccccc4C3=O)/C(=N/C(C)=O)N2C)cc1OC | inactive: > 100 µM
CC(=O)N1C2=CCCC2(C)c2ccccc21 (stereo unspecified) | inactive: > 100 µM
COc1ccc(C2=NN(C(=O)c3ccccc3)C(O)(c3cc(F)c(Cl)cc3Cl)C2)cc1OC (stereo unspecified) | inactive: 23.6 µM
Cn1cccc1-c1ccc(-c2ccc(CO)[se]2)[se]1 | inactive: 25.9 µM
COc1c(I)c(OC)c2c(c1I)O[C@@H]1OCC[C@H]21 | inactive: 74.6 µM
O=C1NC(N2CCCC(CO)C2)=N/C1=C\c1ccccc1 (stereo unspecified) | inactive: > 100 µM
Cc1c2ccccc2c(CO)c2cc(F)c3ccccc3c12 | inactive: > 100 µM
C=CCN1C(=O)NC(=O)/C(=C/c2c3ccccc3cc3ccccc23)C1=O | inactive: 22.7 µM
OCC1OC(Oc2cc(O)cc(/C=C\c3ccc(O)cc3)c2)C(O)C(O)C1O (stereo unspecified) | inactive: > 100 µM
CC(=O)NNc1nc(C)c(C(=O)/C=C/c2ccc(Cl)c(Cl)c2)s1 | inactive: > 100 µM
CC(C)NCCC(O)c1cc2ccccc2o1 (stereo unspecified) | inactive: > 100 µM
COc1ccc(/C=C2/C(C)=NN(c3cccc(Cl)c3)/C2=N/c2nc3ccccc3s2)cc1 | inactive: 22.5 µM
O=c1c2sc(=S)n(-c3ccc(F)cc3)c2ncn1/N=C/c1ccc(F)cc1F | inactive: 23.1 µM
C/C(=C\COP(=O)(O)OP(=O)(O)O)CC/C=C(\C)CNc1c(F)c(F)c(F)c(F)c1F | inactive: > 44.8 µM
Cc1oc(N)c(S(=O)(=O)/C(C#N)=C/c2ccccc2[N+](=O)[O-])c1C | inactive: 55.7 µM
N#Cc1ccc(OCc2ccc3nc(-c4ccccc4)c(Cl)nc3c2)cc1 | inactive: > 100 µM
CCCCCCCCC/C=C1/CC(CO)(COC(=O)C2CCCCC2)OC1=O (stereo unspecified) | inactive: > 100 µM
CC(=O)OC1CC2C(C)(C)C(=O)C=C[C@]2(C)C2CCC3(C)C(=CCC3[C@H](CO)C[C@H](O)C(=O)C(C)(C)O)[C@]12C (stereo partly specified) | inactive: 27.9 µM
O=c1c2cc(Cl)ccc2[nH]c2cc(O)cc(O)c12 | inactive: > 10 µM
Cn1c(=O)nc2n(-c3cccc(F)c3)c3ccccc3nc-2c1=O | inactive: 28.3 µM
COc1c(OC2OC(CO)C(O)C(O)C2O)cc2c(c1OC)-c1ccc(OC)c(=O)cc1[C@@H](NC(C)=O)CC2 (stereo partly specified) | inactive: > 100 µM
